Measured values reported in patent US20210122814A1.

Molecular target: all TGFβ1 LLCs in the LN229 cell-based activation assays (LTBP1-/LTBP3-, GARP- and LRRC33-proTGFβ1)
Experiment: cell-based or functional assay

B1: Ab6 (antibody)
heavy: EVQLVESGGGLVQPGGSLRLSCTASGFTFSSFSMDWVRQAPGKGLEWVSYISPSADTIYYADSVKGRFTISRDNAKNTLYLQMNSLRAEDTAVYYCARGVLDYGDMLMPWGQGTLVTVSSASTKGPSVFPLAPCSRSTSESTAALGCLVKDYFPEPVTVSWNSGALTSGVHTFPAVLQSSGLYSLSSVVTVPSSSLGTKTYTCNVDHKPSNTKVDKRV[… human IgG4 Fc with S228P (EU numbers) …]
light: DIQMTQSPSSLSASVGDRVTITCQASQDITNYLNWYQQKPGKAPKLLIYDASNLETGVPSRFSGSGSGTDFTFTISSLQPEDIATYYCQQADNHPPWTFGGGTKVEIKRTVAAPSVFIFPPSDEQLKSGTASVVCLLNNFYPREAKVQWKVDNALQSGNSQESVTEQDSKDSTYSLSSTLTLSKADYEKHKVYACEVTHQGLSSPVTKSFNRGEC
IC50, integrin-mediated activation, LN229 cells with CAGA12 reporter cells: 1.15 to 1.42 nM
